Assay results taken from the supplement of paper PMC10126150.
Values marked as one replicate rest on one cluster of the flow cell; about a third of the high ones do not repeat.

system: ATP; experiment: switch fluorescence ratio, 500 uM ATP over buffer (Cy3 cluster intensity, sum of 5 cycles each) (fold (ratio)); higher = stronger signal-on switching upon ATP binding; sequences stand for … in TCGTCGGCAGCGTCAGATGTGTATAAGAGACAGTTTTTTTTTTTTTTTTTTTTTTTTT…TC; settings: aptamer strand: ATP DNA aptamer (quencher-CACCTGGGGGAGTATTGCGGAGGAAGG + anchor), 100 nM annealed; ATP concentration: 500 uM; one replicate
Outline: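 Cy3-labelled switching-strand clusters on a modified Illumina MiSeq flow-cell were annealed to 100 nM quencher-labelled ATP aptamer and imaged first in selection buffer, then after 15 min with 500 uM ATP at 22 °C. NaOH stripping and re-annealing separated each of five buffer/ATP cycles, and clusters outside 100-1000 RFU were excluded. The fluorescence ratio sums target-cycle Cy3 intensity over buffer-cycle Cy3 intensity per cluster and averages it per switch-domain sequence.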
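Note: ATP exposure 15 min at 22 °C before imaging.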

Sequence	switch fluorescence ratio
AACGCTGTCA	1.03
AACGGACTGG	1.03
AACGGATCCG	0.965
AACGGCCCGG	1.08
AACGGCCTTA	1.02
AACGGGTCCG	1.07
AACGGTACCC	1.34
AACGGTAGAC	1.14
AACGGTTAGA	1.04
AACGTAACA	1.26
AACGTATGCT	1.01
AACGTCATGG	1.09
AACGTCATTG	1.1
AACGTCCATC	1
AACGTGAATA	1.08
AACGTGATTT	1.05
AACGTGGGCC	0.999
AACGTGTT	0.995
AACGTTCAAG	1.01
AACGTTGGGT	0.969
AACTAAAGTG	0.933
AACTAACAGA	1.07
AACTAAGTAC	1.26
AACTACGAAT	1.11
AACTACGCGG	1.29

Sequence	switch fluorescence ratio
AACTAGTTGT	1.02
AACTATCTTA	0.996
AACTATGGA	1
AACTCCGTGG	1.09
AACTCCGTTG	1.06
AACTCGGATG	0.973
AACTCTAGAG	0.947
AACTCTCCAT	1
AACTCTGCGC	1.46
AACTGAAAAT	1
AACTGAATAC	1.6
AACTGAGGAG	0.935
AACTGCAAGA	1.16
AACTGCAGCG	1.05
AACTGGCCCA	0.991
AACTGGGATG	1.03
AACTGGTCG	1.04
AACTGTAGCG	1.06
AACTTAGCAT	1.04
AACTTGCGGG	0.963
AACTTGTTAT	0.989
AACTTTGTCG	1.16
AAGAAAAATG	1
AAGAAAACCG	1.01
AAGAAACCGC	1.74

Sequence	switch fluorescence ratio
AAGAAATAGG	0.987
AAGAAATTGT	1.16
AAGAACAGCG	1.03
AAGAACAGGG	1.02
AAGAACTCGG	1.05
AAGAATAGC	1.01
AAGAATCCTG	0.991
AAGACACGTA	1.14
AAGACATCTA	1
AAGACCGTAT	1.18
AAGACTATCG	1.02
AAGACTGCAC	1.34
AAGACTGGAT	1.01
AAGACTTTAG	1
AAGAGACTAA	1.01
AAGAGAGAT	1.03
AAGAGCAACA	1.06
AAGAGCAGTG	1.05
AAGAGTCAGC	0.964
AAGAGTCGCA	0.977
AAGATAAATT	0.974
AAGATAGCCT	0.999
AAGATCGGGC	0.983
AAGATCGGTT	0.968
AAGATCGTAA	1.01

Sequence	switch fluorescence ratio
AAGATGCCAG	1.02
AAGATGGGTT	0.992
AAGATGTCGA	1.03
AAGATTCAGC	0.986
AAGCAAGTCC	1.38
AAGCAATTCT	4.87
AAGCAGCCG	0.991
AAGCAGGCGC	0.968
AAGCCATTG	1.02
AAGCCCGTA	0.942
AAGCCCGTAT	1
AAGCCCGTGG	0.973
AAGCCCTCGA	0.96
AAGCCGTTCT	0.995
AAGCCTTGTG	1.01
AAGCGAGATC	1.06
AAGCGATTTG	1.03
AAGCGCGG	0.999
AAGCGCTCTG	0.956
AAGCGCTGGA	1.04
AAGCGTACAT	1.06
AAGCTATTAT	1.02
AAGCTCCCTC	1.18
AAGCTCGCCA	0.98
AAGCTGCGTC	1.02
